In test [1] the target is FLAG-tagged Exo1 (human) (UniProt Q9UQ84). The test can be described thus: co-IP; human cells overexpressing mCherry-PIPp21-WT-NLS as competitor (Supplementary Figure S4).
A further test has as its target Exo1(PIPFen1-WT) (UniProt Q9UQ84). The test can be described thus: co-IP; HEK293T lysate (20 mM Tris-HCl pH 8.0, 1 mM EDTA, 150 mM NaCl, 0.5% NP-40, 1 mM PMSF); FLAG-tagged Exo1 or mutant precipitated with M2-conjugated Sepharose, 4°C for 2 h; immunoblot.
A further test deals with FLAG-Exo1(ΔPIP) (human) (UniProt Q9UQ84). The test is described as above.
Test [2] concerns the target FLAG-tagged Exo1 (human) (UniProt Q9UQ84). Described as above.
Test [3] addresses T1, Xenopus Exo1 (Xenopus (endogenous in egg nuclear extract)) (UniProt Q9W6K2).
T1 sequence: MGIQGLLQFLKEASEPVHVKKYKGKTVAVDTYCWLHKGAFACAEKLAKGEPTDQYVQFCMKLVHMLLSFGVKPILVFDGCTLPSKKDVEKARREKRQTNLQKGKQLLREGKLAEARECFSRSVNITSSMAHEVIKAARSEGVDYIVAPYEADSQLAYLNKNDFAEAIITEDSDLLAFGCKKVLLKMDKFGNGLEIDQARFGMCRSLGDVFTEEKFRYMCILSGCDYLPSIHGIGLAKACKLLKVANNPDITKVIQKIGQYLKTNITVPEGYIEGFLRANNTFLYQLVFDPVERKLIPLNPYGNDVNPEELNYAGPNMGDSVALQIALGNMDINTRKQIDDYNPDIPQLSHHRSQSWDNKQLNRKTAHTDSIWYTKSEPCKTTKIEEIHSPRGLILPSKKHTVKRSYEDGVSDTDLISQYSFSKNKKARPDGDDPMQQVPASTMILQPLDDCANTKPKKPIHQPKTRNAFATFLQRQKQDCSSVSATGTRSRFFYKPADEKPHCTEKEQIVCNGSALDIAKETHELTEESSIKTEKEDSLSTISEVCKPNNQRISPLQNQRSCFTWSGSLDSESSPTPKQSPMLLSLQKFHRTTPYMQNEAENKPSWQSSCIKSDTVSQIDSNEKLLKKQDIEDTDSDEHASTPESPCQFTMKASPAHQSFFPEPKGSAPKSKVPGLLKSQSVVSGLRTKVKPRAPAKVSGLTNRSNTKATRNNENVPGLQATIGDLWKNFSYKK
The test can be described thus: co-IP; Xenopus nuclear extract with PIPp21-WT or PIPp21-MUT peptide added; xExo1-xPCNA interaction (Figure 5A).

The chains behind the UniProt entries cited, without tags or fusion partners. Where a name states a change or a piece, a line headed by the entry shows the natural chain unless it says otherwise. A line that says so, or that is headed by a name, gives the form on record, which may keep a tag or linker.
UniProt Q9UQ84: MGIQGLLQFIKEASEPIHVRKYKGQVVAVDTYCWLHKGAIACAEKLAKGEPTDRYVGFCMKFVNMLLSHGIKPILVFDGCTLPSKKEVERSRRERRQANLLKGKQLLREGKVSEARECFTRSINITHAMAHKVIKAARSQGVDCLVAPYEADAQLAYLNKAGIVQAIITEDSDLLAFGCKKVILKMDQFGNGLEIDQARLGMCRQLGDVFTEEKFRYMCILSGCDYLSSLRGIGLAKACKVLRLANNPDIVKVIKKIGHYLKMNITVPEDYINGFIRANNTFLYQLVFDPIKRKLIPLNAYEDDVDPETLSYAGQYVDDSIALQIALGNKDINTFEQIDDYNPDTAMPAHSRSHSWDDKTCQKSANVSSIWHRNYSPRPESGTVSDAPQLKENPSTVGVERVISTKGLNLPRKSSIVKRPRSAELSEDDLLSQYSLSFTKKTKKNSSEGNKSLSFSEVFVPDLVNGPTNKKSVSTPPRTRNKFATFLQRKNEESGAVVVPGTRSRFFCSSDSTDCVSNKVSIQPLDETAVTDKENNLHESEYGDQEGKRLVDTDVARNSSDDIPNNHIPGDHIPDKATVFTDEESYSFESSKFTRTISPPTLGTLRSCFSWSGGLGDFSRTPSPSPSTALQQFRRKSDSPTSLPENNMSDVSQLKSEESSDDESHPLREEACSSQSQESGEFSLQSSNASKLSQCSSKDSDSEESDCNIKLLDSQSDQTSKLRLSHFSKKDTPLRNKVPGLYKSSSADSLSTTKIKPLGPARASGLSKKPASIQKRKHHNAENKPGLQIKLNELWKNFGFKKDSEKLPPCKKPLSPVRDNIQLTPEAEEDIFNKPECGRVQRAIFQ
Exo1(PIPFen1-WT) (Q9UQ84, form named): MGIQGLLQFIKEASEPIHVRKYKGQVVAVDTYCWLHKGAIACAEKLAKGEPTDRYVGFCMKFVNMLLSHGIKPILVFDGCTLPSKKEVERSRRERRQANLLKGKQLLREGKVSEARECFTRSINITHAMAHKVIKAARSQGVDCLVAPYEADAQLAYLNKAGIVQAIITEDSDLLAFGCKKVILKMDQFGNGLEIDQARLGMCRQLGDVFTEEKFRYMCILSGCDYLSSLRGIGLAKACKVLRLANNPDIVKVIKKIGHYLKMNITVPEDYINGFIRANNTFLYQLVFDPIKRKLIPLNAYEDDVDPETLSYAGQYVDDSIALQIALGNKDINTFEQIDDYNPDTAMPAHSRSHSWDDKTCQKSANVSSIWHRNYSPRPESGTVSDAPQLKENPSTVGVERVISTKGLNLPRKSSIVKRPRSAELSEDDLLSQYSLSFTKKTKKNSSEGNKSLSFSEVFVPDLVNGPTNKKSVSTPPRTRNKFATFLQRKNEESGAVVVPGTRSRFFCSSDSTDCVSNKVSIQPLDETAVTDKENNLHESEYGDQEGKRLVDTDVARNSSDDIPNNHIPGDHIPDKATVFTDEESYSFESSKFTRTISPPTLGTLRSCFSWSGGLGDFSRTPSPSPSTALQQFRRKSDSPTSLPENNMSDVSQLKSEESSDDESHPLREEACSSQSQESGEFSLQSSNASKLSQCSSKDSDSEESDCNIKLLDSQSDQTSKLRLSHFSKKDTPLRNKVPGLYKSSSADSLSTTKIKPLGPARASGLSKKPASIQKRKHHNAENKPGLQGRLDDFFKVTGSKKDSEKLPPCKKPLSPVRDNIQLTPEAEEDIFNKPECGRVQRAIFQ
FLAG-Exo1(ΔPIP) (Q9UQ84, form named): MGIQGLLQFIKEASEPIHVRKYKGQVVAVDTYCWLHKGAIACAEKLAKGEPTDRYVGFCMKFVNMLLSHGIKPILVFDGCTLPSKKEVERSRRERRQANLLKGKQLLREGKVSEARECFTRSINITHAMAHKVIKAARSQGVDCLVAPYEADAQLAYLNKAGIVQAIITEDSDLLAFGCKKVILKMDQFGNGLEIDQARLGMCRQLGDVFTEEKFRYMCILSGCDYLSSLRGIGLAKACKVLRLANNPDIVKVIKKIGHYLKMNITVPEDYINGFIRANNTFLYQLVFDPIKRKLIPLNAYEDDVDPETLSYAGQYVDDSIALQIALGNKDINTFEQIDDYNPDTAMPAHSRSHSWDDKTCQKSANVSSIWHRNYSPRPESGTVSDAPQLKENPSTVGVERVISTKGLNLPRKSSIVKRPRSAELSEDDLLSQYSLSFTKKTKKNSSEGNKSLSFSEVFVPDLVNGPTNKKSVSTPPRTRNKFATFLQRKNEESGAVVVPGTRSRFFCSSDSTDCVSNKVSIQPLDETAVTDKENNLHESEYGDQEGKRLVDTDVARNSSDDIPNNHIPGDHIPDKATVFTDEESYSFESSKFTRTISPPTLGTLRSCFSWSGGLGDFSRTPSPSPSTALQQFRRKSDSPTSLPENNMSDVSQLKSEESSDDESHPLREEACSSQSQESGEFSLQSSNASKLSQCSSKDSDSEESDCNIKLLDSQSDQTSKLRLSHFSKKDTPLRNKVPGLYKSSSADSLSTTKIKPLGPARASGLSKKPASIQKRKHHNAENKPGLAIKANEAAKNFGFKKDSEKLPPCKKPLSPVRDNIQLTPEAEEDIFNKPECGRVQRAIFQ
UniProt P12004: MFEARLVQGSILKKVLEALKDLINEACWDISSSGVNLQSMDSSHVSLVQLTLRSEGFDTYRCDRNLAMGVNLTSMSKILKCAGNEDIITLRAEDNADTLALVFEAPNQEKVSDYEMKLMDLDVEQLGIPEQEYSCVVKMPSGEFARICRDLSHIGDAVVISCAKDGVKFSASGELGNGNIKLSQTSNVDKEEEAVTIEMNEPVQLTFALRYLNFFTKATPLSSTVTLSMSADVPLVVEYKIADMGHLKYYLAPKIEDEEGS
UniProt P18248: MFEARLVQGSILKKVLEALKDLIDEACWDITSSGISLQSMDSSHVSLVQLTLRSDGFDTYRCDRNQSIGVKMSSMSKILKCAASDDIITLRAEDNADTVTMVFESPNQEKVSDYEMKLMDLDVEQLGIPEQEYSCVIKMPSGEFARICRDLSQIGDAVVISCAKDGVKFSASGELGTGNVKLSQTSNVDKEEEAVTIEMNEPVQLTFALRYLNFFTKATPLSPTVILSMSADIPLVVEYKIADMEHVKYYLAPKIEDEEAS

The target of test [4] is T1, Xenopus Exo1 (Xenopus (endogenous in egg nuclear extract)). The test is described as follows: co-IP; Xenopus nuclear protein extract; Protein A-Sepharose beads pre-bound by anti-xExo1 or anti-xPCNA antibodies, 4°C for 2 h; immunoblot. For orientation: A western blot detects proteins with antibodies after separation by electrophoresis.
For test [5], the target named is PCNA (human cells) (human (endogenous in HEK293T)) (UniProt P12004). The test is described as follows: co-IP; human cells overexpressing mCherry-PIPp21-WT-NLS as competitor (Supplementary Figure S4).

No constants are given. Whether binding was seen depends on the method and setting. Binding seen in cells or lysates may run through a third protein. Some results given as binding are weak or reduced against the parent protein; the word gives no strength.

Take “PCNA (human cells) (from UniProt P12004 1-261)”: the binding result with FLAG-tagged Exo1 (human) [1] is listed as “binds”; with Exo1(PIPFen1-WT) it was “binds”; with FLAG-Exo1(ΔPIP) (human), “no binding”; in the test with FLAG-tagged Exo1 (human) [2] it was “binds”.

As to “Xenopus PCNA (from UniProt P18248 1-261)”, the binding entry in test [3] and in test [4] was “binds” in each case.

For DLSLSCTLVPRSGEQAEGSPGGPGDSQGRKRRQTSMTDFYHSKRRAIAS (domain or fragment) [mCherry-PIPp21-WT-NLS], the binding entry in test [5] is given as “binds”.
